Data: the supplement of paper PMC10724272

Columns and labels:
Experiment in all cases: CLSI broth microdilution.
itraconazole = compound: CCC(C)n1ncn(-c2ccc(N3CCN(c4ccc(OCC5COC(Cn6cncn6)(c6ccc(Cl)cc6Cl)O5)cc4)CC3)cc2)c1=O [itraconazole]
voriconazole = compound: C[C@@H](c1ncncc1F)[C@](O)(Cn1cncn1)c1ccc(F)cc1F [voriconazole]
micafungin = compound: CCCCCOc1ccc(-c2cc(-c3ccc(C(=O)N[C@H]4C[C@@H](O)[C@@H](O)NC(=O)[C@@H]5[C@@H](O)[C@@H](C)CN5C(=O)[C@H]([C@H](O)CC(N)=O)NC(=O)[C@H]([C@H](O)[C@@H](O)c5ccc(O)c(OS(=O)(=O)O)c5)NC(=O)[C@@H]5C[C@@H](O)CN5C(=O)[C@H]([C@@H](C)O)NC4=O)cc3)no2)cc1 [micafungin]
posaconazole = compound: CC[C@@H]([C@H](C)O)n1ncn(-c2ccc(N3CCN(c4ccc(OC[C@@H]5CO[C@@](Cn6cncn6)(c6ccc(F)cc6F)C5)cc4)CC3)cc2)c1=O [posaconazole]
anidulafungin = compound: CCCCCOc1ccc(-c2ccc(-c3ccc(C(=O)N[C@H]4C[C@@H](O)[C@@H](O)NC(=O)[C@@H]5[C@@H](O)[C@@H](C)CN5C(=O)[C@H]([C@@H](C)O)NC(=O)[C@H]([C@H](O)[C@@H](O)c5ccc(O)cc5)NC(=O)[C@@H]5C[C@@H](O)CN5C(=O)[C@H]([C@@H](C)O)NC4=O)cc3)cc2)cc1 [anidulafungin]
caspofungin = compound: CC[C@H](C)C[C@H](C)CCCCCCCCC(=O)N[C@H]1C[C@@H](O)[C@@H](NCCN)NC(=O)[C@@H]2[C@@H](O)CCN2C(=O)[C@H]([C@H](O)CCN)NC(=O)[C@H]([C@H](O)[C@@H](O)c2ccc(O)cc2)NC(=O)[C@@H]2C[C@@H](O)CN2C(=O)[C@H]([C@@H](C)O)NC1=O [caspofungin]
fluconazole = compound: OC(Cn1cncn1)(Cn1cncn1)c1ccc(F)cc1F [fluconazole]
amphotericin B = compound: C[C@@H]1[C@H](O)[C@@H](C)/C=C/C=C/C=C/C=C/C=C/C=C/C=C/[C@H](O[C@@H]2O[C@H](C)[C@@H](O)[C@H](N)[C@@H]2O)C[C@@H]2O[C@](O)(C[C@@H](O)C[C@@H](O)[C@H](O)CC[C@@H](O)C[C@@H](O)CC(=O)O[C@H]1C)C[C@H](O)[C@H]2C(=O)O [amphotericin B]
flucytosine = compound: Nc1[nH]c(=O)ncc1F [flucytosine]

Test System | MIC (itraconazole) | MIC (voriconazole) | MIC (micafungin) | MIC (posaconazole) | MIC (anidulafungin) | MIC (caspofungin) | MIC (fluconazole) | MIC (amphotericin B) | MIC (flucytosine)
Candida tropicalis isolate 123 (ERG11 copies: 2, Erg11p: Y132F, S154F (heterozygous)) | 0.25 mg/L [S] | 2 mg/L [R] | 0.03 mg/L [S] | 0.25 mg/L [S] | 0.03 mg/L [S] | 0.06 mg/L [S] | 32 mg/L [R] | 1 mg/L [S] | ≤ 0.06 mg/L [S]
Candida tropicalis isolate 124 (ERG11 copies: 2, Erg11p: no key change) | 1 mg/L [R] | ≥ 8 mg/L [R] | 0.03 mg/L [S] | 1 mg/L [R] | 0.03 mg/L [S] | 0.03 mg/L [S] | 256 mg/L [R] | 1 mg/L [S] | ≤ 0.06 mg/L [S]
Candida tropicalis isolate 125 (ERG11 copies: 7, Erg11p: Y132F, S154F (heterozygous)) | 1 mg/L [R] | ≥ 8 mg/L [R] | 0.06 mg/L [S] | 1 mg/L [R] | 0.12 mg/L [S] | 0.06 mg/L [S] | 512 mg/L [R] | 1 mg/L [S] | ≤ 0.06 mg/L [S]
Candida tropicalis isolate 126 (ERG11 copies: 2, Erg11p: no key change) | 0.25 mg/L [S] | 0.06 mg/L [S] | 0.015 mg/L [S] | 0.25 mg/L [S] | ≤ 0.015 mg/L [S] | 0.015 mg/L [S] | 2 mg/L [S] | 1 mg/L [S] | ≤ 0.06 mg/L [S]
Candida tropicalis isolate 127 (ERG11 copies: 2, Erg11p: no key change) | 0.12 mg/L [S] | 0.06 mg/L [S] | 0.03 mg/L [S] | 0.12 mg/L [S] | 0.06 mg/L [S] | 0.03 mg/L [S] | 2 mg/L [S] | 1 mg/L [S] | ≤ 0.06 mg/L [S]
Candida tropicalis isolate 128 (ERG11 copies: 2, Erg11p: no key change) | 0.06 mg/L [S] | 0.03 mg/L [S] | 0.03 mg/L [S] | 0.03 mg/L [S] | 0.12 mg/L [S] | 0.06 mg/L [S] | 0.5 mg/L [S] | 0.25 mg/L [S] | ≤ 0.06 mg/L [S]
Candida tropicalis isolate 129 (ERG11 copies: 7, Erg11p: Y132F, S154F (heterozygous)) | 1 mg/L [R] | > 8 mg/L [R] | 0.03 mg/L [S] | 1 mg/L [R] | 0.12 mg/L [S] | 0.03 mg/L [S] | 512 mg/L [R] | 1 mg/L [S] | ≤ 0.06 mg/L [S]
Candida tropicalis isolate 130 (ERG11 copies: 2, Erg11p: no key change) | 0.25 mg/L [S] | 0.06 mg/L [S] | 0.06 mg/L [S] | 0.12 mg/L [S] | 0.12 mg/L [S] | 0.03 mg/L [S] | 1 mg/L [S] | 0.5 mg/L [S] | ≤ 0.06 mg/L [S]
Candida tropicalis isolate 131 (ERG11 copies: 2, Erg11p: no key change) | 0.25 mg/L [S] | 0.06 mg/L [S] | 0.03 mg/L [S] | 0.25 mg/L [S] | 0.03 mg/L [S] | 0.03 mg/L [S] | 1 mg/L [S] | 0.5 mg/L [S] | ≤ 0.06 mg/L [S]
Candida tropicalis isolate 132 (ERG11 copies: 10, Erg11p: Y132F, S154F (heterozygous)) | 1 mg/L [R] | ≥ 8 mg/L [R] | 0.03 mg/L [S] | 1 mg/L [R] | 0.12 mg/L [S] | 0.03 mg/L [S] | 512 mg/L [R] | 1 mg/L [S] | ≤ 0.06 mg/L [S]
Candida tropicalis isolate 133 (ERG11 copies: 2, Erg11p: no key change) | 0.06 mg/L [S] | 0.06 mg/L [S] | 0.03 mg/L [S] | 0.06 mg/L [S] | 0.06 mg/L [S] | 0.03 mg/L [S] | 1 mg/L [S] | 1 mg/L [S] | ≤ 0.06 mg/L [S]
Candida tropicalis isolate 134 (ERG11 copies: 2, Erg11p: no key change) | 0.06 mg/L [S] | ≤ 0.008 mg/L [S] | 0.015 mg/L [S] | 0.03 mg/L [S] | 0.06 mg/L [S] | 0.06 mg/L [S] | 0.5 mg/L [S] | 0.25 mg/L [S] | ≤ 0.06 mg/L [S]
Candida tropicalis isolate 135 (ERG11 copies: 2, Erg11p: no key change) | 0.25 mg/L [S] | 0.12 mg/L [S] | 0.03 mg/L [S] | 0.25 mg/L [S] | 0.12 mg/L [S] | 0.06 mg/L [S] | 2 mg/L [S] | 1 mg/L [S] | ≤ 0.06 mg/L [S]
Candida tropicalis isolate 136 (ERG11 copies: 2, Erg11p: no key change) | 0.06 mg/L [S] | 0.03 mg/L [S] | 0.03 mg/L [S] | 0.06 mg/L [S] | 0.03 mg/L [S] | 0.03 mg/L [S] | 1 mg/L [S] | 0.5 mg/L [S] | ≤ 0.06 mg/L [S]
Candida tropicalis isolate 137 (ERG11 copies: 2, Erg11p: no key change) | 0.25 mg/L [S] | 0.06 mg/L [S] | 0.015 mg/L [S] | 0.25 mg/L [S] | 0.12 mg/L [S] | 0.12 mg/L [S] | 0.5 mg/L [S] | 0.5 mg/L [S] | ≤ 0.06 mg/L [S]
Candida tropicalis isolate 138 (ERG11 copies: 2, Erg11p: no key change) | 0.12 mg/L [S] | 0.03 mg/L [S] | 0.015 mg/L [S] | 0.12 mg/L [S] | ≤ 0.015 mg/L [S] | 0.06 mg/L [S] | 1 mg/L [S] | 0.5 mg/L [S] | ≤ 0.06 mg/L [S]
Candida tropicalis isolate 139 (ERG11 copies: 2, Erg11p: no key change) | 0.25 mg/L [S] | 0.12 mg/L [S] | 0.015 mg/L [S] | 0.25 mg/L [S] | 0.03 mg/L [S] | 0.03 mg/L [S] | 1 mg/L [S] | 1 mg/L [S] | ≤ 0.06 mg/L [S]
Candida tropicalis isolate 140 (ERG11 copies: 2, Erg11p: Y132F, S154F (heterozygous)) | 0.25 mg/L [S] | 1 mg/L [R] | 0.03 mg/L [S] | 0.12 mg/L [S] | 0.12 mg/L [S] | 0.03 mg/L [S] | 16 mg/L [R] | 1 mg/L [S] | ≤ 0.06 mg/L [S]

MIC of invasive clinical C. tropicalis isolates, CLSI broth microdilution (fluconazole 0.12-256 mg/L, up to 1,024 for the azole-resistant cluster and its neighbour group; other ranges not stated); higher = less susceptible. Call: susceptible or wild type [S] / resistant or non-wild type [R] by CLSI breakpoints or cut-offs; intermediate and dose-dependent carry no call. '<=' and '>=' at the end values are inferred; the source marks only some of them. Isolates are numbered anew.
